Publication PMC4336329 (PLoS ONE, 2015)
The whole screen tested about 310,000 compounds, of which about 2,200 (0.71%) showed an effect of 50% or more. Effects have a minus sign here. The list shows a part of the results.

target: human ether-à-go-go-related gene (hERG) potassium channel (human, UniProt Q12809); assay: primary screen, population patch clamp on CHO cells stably expressing hERG
Sequence (Q12809 whole entry, looked up): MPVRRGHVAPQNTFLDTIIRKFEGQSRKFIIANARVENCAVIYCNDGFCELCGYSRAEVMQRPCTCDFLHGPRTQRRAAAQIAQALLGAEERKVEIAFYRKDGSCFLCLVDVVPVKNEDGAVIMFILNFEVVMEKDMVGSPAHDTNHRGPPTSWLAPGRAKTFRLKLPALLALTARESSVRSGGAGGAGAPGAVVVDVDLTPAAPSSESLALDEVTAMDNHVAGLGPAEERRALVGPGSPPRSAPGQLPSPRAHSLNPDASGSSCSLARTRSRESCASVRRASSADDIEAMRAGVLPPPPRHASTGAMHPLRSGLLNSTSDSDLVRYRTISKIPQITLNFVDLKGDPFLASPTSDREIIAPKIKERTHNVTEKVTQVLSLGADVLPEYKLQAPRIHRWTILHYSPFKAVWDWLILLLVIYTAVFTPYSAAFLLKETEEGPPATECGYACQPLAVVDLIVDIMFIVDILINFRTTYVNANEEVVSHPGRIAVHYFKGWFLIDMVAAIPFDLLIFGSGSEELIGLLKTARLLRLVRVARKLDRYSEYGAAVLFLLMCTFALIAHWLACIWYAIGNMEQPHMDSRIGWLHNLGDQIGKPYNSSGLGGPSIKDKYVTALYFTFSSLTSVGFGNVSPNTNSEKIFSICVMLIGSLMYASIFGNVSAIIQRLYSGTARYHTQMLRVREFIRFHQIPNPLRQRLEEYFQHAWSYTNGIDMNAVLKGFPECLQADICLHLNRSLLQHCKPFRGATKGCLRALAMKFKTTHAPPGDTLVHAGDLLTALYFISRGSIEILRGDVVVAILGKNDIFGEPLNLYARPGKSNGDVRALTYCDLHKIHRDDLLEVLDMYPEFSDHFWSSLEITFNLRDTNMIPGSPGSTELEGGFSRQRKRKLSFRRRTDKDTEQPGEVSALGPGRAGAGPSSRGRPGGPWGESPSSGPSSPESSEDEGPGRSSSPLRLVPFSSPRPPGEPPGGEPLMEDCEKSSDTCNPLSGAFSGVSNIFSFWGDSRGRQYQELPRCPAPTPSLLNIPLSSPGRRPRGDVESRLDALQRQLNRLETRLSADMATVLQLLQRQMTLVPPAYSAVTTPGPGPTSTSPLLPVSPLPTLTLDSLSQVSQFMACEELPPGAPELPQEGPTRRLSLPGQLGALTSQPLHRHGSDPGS

SMILES | hERG current change (%, negative = inhibition) at 1uM [%]
COc1cc(OC)c(-n2cc(-c3ccc(Cl)cc3)[nH]c2=O)cc1Cl | 11.4
CC(=O)c1cccc(NC(=O)C2CCN(C(=O)c3cccs3)CC2)c1 | 5.97
CCOc1ccc2nc(Cl)c(C3CC(c4ccco4)=NN3S(C)(=O)=O)cc2c1 (stereo not drawn) | -10.5
CCC1CCCCN1C(=O)CSC1=NN2CCCC(=O)N=C2S1 (stereo not drawn) | 15.5
Cc1nnc(SCCn2c(N3CCC(C)CC3)nc3c2c(=O)n(C)c(=O)n3C)s1 | 2.17
CC1=C(C#N)C(NC(=O)c2ccccc2Cl)(C(F)(F)F)C(=O)N1 (stereo not drawn) | 2.66
CC(C)C1Cc2c(sc3ncnc(NN)c23)CO1 (stereo not drawn) | 13.4
O=c1cc[nH]c2cc(Cl)ccc12 | 10.5
COc1ccc(/C=C/C(=O)c2ccc(Cl)s2)cc1O | 7.3
CCCn1cc(S(=O)(=O)c2ccccc2)c(=O)c2cc(OCC)ccc21 | -0.252
COc1ccc(NC(=O)C2CCCN(S(C)(=O)=O)C2)cc1OC (stereo not drawn) | 15.2
CCOC(=O)C(CCSC)Nc1nc(Cl)nc(Nc2ccc(Cl)cc2)n1 (stereo not drawn) | 14.3
O=CNCCCc1nc2ccccc2n1Cc1ccccc1 | -3.02
COc1ccc(NC(=O)CS(=O)c2ccccc2Cl)cc1 (stereo not drawn) | 8.8
CC(C)(CNC(=O)c1cc2ccccc2o1)N1CCOCC1 | 9.16
CC(C)c1ccccc1NC(=O)c1ccco1 | -10.2
CC(=O)c1cccc(NC(=O)C2=CC(c3cccs3)=NS(=O)(=O)N2C)c1 | 12.7
CC(C)(C)Sc1ccc([N+](=O)[O-])cc1C(=O)Nc1ccncc1 | 0.86
O=C(OCC(=O)N1CCc2ccccc21)c1ccccc1 | 10.7
Cc1ccc(CC(=O)Nc2nc3ccccc3s2)cc1 | 8.93
O=C(COc1ccc(Br)cc1)NNC(=S)NC(=O)c1ccccc1[N+](=O)[O-] | 8.88
CC(C)(C)c1ccc(Cn2nnc3c(=O)[nH]c(C4CCN(C(=O)Cc5cccs5)CC4)nc32)cc1 | 8.56
CC1(C)CC(NC(=O)c2ccc(Br)o2)CC(C)(C)N1 | 14.5

SMILES | hERG current change (%, negative = inhibition) at 1uM [%]
CC(=O)N(C)c1ccc(NC(=S)NC(=O)/C=C/c2ccco2)cc1 | 11.8
CC(C)(C)C(=O)/C(=C\c1ccc([N+](=O)[O-])cc1)n1cncn1 | -6.21
O=C(COC(=O)c1cccnc1Cl)NCc1ccc2c(c1)OCO2 | 10.4
CCn1c(SCC(=O)Nc2cccc(NC(=O)c3cccs3)c2)nnc1-c1ccncc1 | 2.12
O=C(CCCCn1c(=O)[nH]c2ccsc2c1=O)NCCc1ccccc1 | 9.26
O=C1CSC(=S)N1c1cccc(Br)c1 | 13
Nc1c(C(=O)N/N=C/c2cccnc2)oc2nc(-c3ccco3)cc(-c3ccco3)c12 | 14.6
Cc1ccc(-c2nc(C#N)c(NCCc3ccccn3)o2)cc1 | -0.178
CC(NC(=O)C(C)N1CCN(S(=O)(=O)c2ccccc2)CC1)c1ccccc1 (stereo not drawn) | 1.94
COc1ccc(-c2ccc(SCC(=O)Nc3nccs3)nn2)cc1OC | 18.9
CCOc1ccc(N2CC(C(=O)Nc3ccccn3)CC2=O)cc1 (stereo not drawn) | -5.75
COc1ccc(-c2noc(CCCOc3ccc(Cl)cc3Cl)n2)cc1 | 13.7
COc1ccc2c(c1)c(C(=O)O)c(C)n2CCc1ccc(OC)c(OC)c1 | 14.2
COc1cccc(-n2nc(C(=O)O)c3ccccc3c2=O)c1 | 7.5
Cc1sc2c(c1C)c(=O)nc1scc(CC(=O)O)n12 | 11.5
COc1ccc(OCc2nnc(SCC(=O)Nc3nnc(C4CC4)s3)n2C)cc1 | 14.2
Cc1c(Cl)cccc1NC(=S)N/N=C/c1ccccc1Cl | 11.8
COc1cccc(OC)c1OCCCN1CCC(Cc2ccccc2)CC1.O=C(O)C(=O)O | -79.3
COc1ccc(NC(=O)NCCCN2CCN(c3ccccc3F)CC2)cc1 | -5
CCc1cccc(NS(=O)(=O)c2ccc3c(c2)N(C)CCO3)c1 | 11
CN(C1CCCCC1)S(=O)(=O)c1ccccc1 | 1.76
CCN(CC)C(=O)CSc1nnc(-c2ccccc2)c(-c2ccccc2)n1 | 3
CCN1C(=O)[C@H]2[C@@H](c3ccc(-c4ccc(F)cc4)cc3)N[C@@](Cc3ccccc3)(C(=O)OC)[C@H]2C1=O.O=C(O)C(F)(F)F | 3.85

SMILES | hERG current change (%, negative = inhibition) at 1uM [%]
CCn1c(-c2cccnc2)n[nH]c1=S | 13.3
Fc1ccc(CN2CCCCCCC2)cc1F | -15.2
O=C(CN1CCN(c2ccccn2)CC1)Nc1ccc(Br)cc1 | -22.6
CCOc1ncccc1C(=O)N(C)CC(=O)Nc1ccc(F)cc1 | 19.3
O=C(CN1C(=O)/C(=C/c2ccccc2)SC1=S)Nc1cccnc1 | 9.4
CC(C)NC(=O)COC(=O)c1ccc(Cl)c(S(N)(=O)=O)c1 | 14.3
CCN(CC)C(=O)CSc1nc2ccccc2c(=O)n1OC(C)C | -7.43
Cc1cc(C)cc(OCc2ccc(C(=O)NC3CCOC3=O)o2)c1 (stereo not drawn) | 6.57
N#Cc1c(N)sc2c1CCN(CCc1ccccc1)C2 | -21.5
O=C(O)[C@H](Cc1ccccc1)NC(=O)N1CCN(c2ccccc2)CC1 | 9.13
CC1CCN(S(=O)(=O)c2ccc(C(=O)Nc3nnc(-c4ccco4)o3)cc2)CC1 | 5.06
CN(NS(=O)(=O)c1ccc(Cl)cc1)c1nc(C(F)(F)F)nc2ccccc12 | 13.9
Cc1nc2ccccc2nc1N/N=C/c1ccc(O)cc1 | 4.88
C=CCO/N=C(/CCC)C1=C(N)CC(C)(C)CC1=O | 15
CN(c1ccc(OCC(=O)Nc2nc(-c3ccccc3)cs2)cc1)S(=O)(=O)c1ccc(F)cc1 | 3.5
COc1cccc(OC)c1NC(=O)c1nc2c(nnn2Cc2ccccc2Cl)c(=O)[nH]1 | 5.65
CCOC(=O)c1cnc2ncnn2c1N | 10.8
O=C(NCCN1C(=O)C2C3C=CC(C3)C2C1=O)Nc1ccc(Br)cc1 (stereo not drawn) | -1.45
O=C(/C=C/c1cccc(F)c1)NNC(=O)c1ccncc1 | 5.6
N#Cc1ccccc1Sc1ccccc1C(=O)Nc1ccc2ccccc2c1 | 13.9
COCCNC(=O)c1ccc(CS(=O)(=O)c2ccccc2)o1 | -2.09
CCC(C)c1ccc(OCC(=O)Nc2cccc(C(=O)Nc3ccc(C(=O)O)cc3)c2)cc1 (stereo not drawn) | 2.39
CCOC(=O)C1=C(N)n2c(s/c(=C\c3ccncc3)c2=O)=C(C(=O)OCC)C1c1ccncc1 (stereo not drawn) | 23

SMILES | hERG current change (%, negative = inhibition) at 1uM [%]
Nc1c(C(=O)Nc2ccc3c(c2)OCCO3)nnn1Cc1ccc(Br)cc1 | 3.21
CCC(C)NC(=O)c1ccc(C2SCC(=O)N2Cc2ccccc2)cc1 (stereo not drawn) | 10.5
Cc1nn(Cc2ccc(F)cc2)c(C)c1NC(=O)c1nn(C)cc1Cl | -21.4
COc1cc(CN(C)CC2CCCN(CCc3cccc(C(F)(F)F)c3)C2)ccc1O (stereo not drawn) | 2.96
CC(=O)Nc1ccc(NC(=O)CCn2cnnn2)cc1 | 12.5
Cc1cc(C(=O)NCCc2ccc(S(N)(=O)=O)cc2)c(C)o1 | 11.6
CN1C(=O)CC(N2CCN(CC(=O)N3CCCC3)CC2)C1=O (stereo not drawn) | 3.59
COc1ccc(C(C)=O)cc1CSc1nnc(SCc2cc(C(C)=O)ccc2OC)s1 | 14.1
CC1CC(C)CN(c2ncnc3c2cnn3-c2ccc(Cl)cc2)C1 (stereo not drawn) | 4.48
COc1cccc(CN2CC(C(=O)NCCc3ccc(C)o3)CCC2=O)c1 (stereo not drawn) | 6.56
C=CCN1C(=O)/C(=C/c2cccs2)S/C1=N\S(=O)(=O)c1ccc(F)cc1 | 9.5
Cc1cc(=O)oc2ccc(OC(=O)CN3C(=O)c4cccc([N+](=O)[O-])c4C3=O)cc12 | 4.36
O=C(O)CCCc1ccc2c(c1)CCc1ccccc1-2 | 11.3
Cc1nnc(SCc2cc(=O)[nH]c(Nc3nc(C)c4cc(C)c(C)cc4n3)n2)s1 | 9.77
CCOC(=O)c1c(NC(=O)CCN2C(=O)c3cccc([N+](=O)[O-])c3C2=O)sc(C(=O)OC(C)C)c1C | 10.2
O=C(Nc1ccc([N+](=O)[O-])cc1)c1ccc(Cn2cc([N+](=O)[O-])cn2)cc1 | 9.06
Cc1cc2c(c(N)n1)c(=O)oc1ccccc12 | 11.4
COc1ccc(/C=C/C(=O)N(c2ccccn2)C2CCCCC2)cc1OC | 14.7
Cc1ccc(CNC(=O)CSCC(=O)O)cc1 | 18.1
COc1cc2[nH]c(Cl)c([N+](=O)[O-])c2cc1OC | 7.59
N#Cc1cc(-c2ccccc2)nnc1Sc1ccc(F)cc1 | 17.6
